Assay results published in the supplement of paper PMC8728848.
Some of the results follow.

Columns and labels:
Assay in all cases: glycan array binding signal (z-score within array); higher = stronger binding
Conditions in all cases: glycan notation: IUPAC condensed, linker removed
[1] = molecular target: GlcNAc(b1-3)Gal(b1-4)GlcNAc(b1-3)Gal(b1-4)GlcNAc(b1-3)GalNAc
In short: (§1)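 Glycan array binding is given as a within-array Z-score, which can be read as non-binding when negative. The arrays, 3228 of them, came from the Consortium for Functional Glycomics database and were retained only where the protein sequence was available. Z-scores were averaged across arrays of the same protein sequence at different concentrations or buffers and across linkers.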

[2] = molecular target: GlcNAc(b1-3)Gal(b1-4)GlcNAc(b1-3)GalNAc
In short: as §1

[3] = molecular target: GlcNAc(b1-3)Gal(b1-4)GlcNAc(b1-3)[GlcNAc(b1-3)Gal(b1-4)GlcNAc(b1-3)]GalNAc
In short: as §1

[4] = molecular target: GlcNAc(b1-3)Gal(b1-4)GlcNAc(b1-6)[Gal(b1-3)]GalNAc
In short: as §1

[5] = molecular target: GlcNAc(b1-3)Gal(b1-4)GlcNAc(b1-6)[GlcNAc(b1-3)Gal(b1-3)]GalNAc
In short: as §1

[6] = molecular target: GlcNAc(b1-3)Gal(b1-4)GlcNAc(b1-6)[GlcNAc(b1-3)]Gal(b1-4)GlcNAc
In short: as §1

[7] = molecular target: GlcNAc(b1-3)GalNAc
In short: as §1

[8] = molecular target: GlcNAc(b1-3)Man
In short: as §1

[9] = molecular target: GlcNAc(b1-3)[GlcNAc(b1-4)][GlcNAc(b1-6)]GlcNAc
In short: as §1

[10] = molecular target: GlcNAc(b1-3)[GlcNAc(b1-6)]Gal(b1-4)GlcNAc
In short: as §1

[11] = molecular target: GlcNAc(b1-3)[GlcNAc(b1-6)]GalNAc
In short: as §1

[12] = molecular target: GlcNAc(b1-4)Gal(b1-4)GlcNAc
In short: as §1

[13] = molecular target: GlcNAc(b1-4)GlcNAc
In short: as §1

[14] = molecular target: GlcNAc(b1-4)GlcNAc(b1-4)GlcNAc
In short: as §1

[15] = molecular target: GlcNAc(b1-4)GlcNAc(b1-4)GlcNAc(b1-4)GlcNAc(b1-4)GlcNAc
In short: as §1

[16] = molecular target: GlcNAc(b1-4)GlcNAc(b1-4)GlcNAc(b1-4)GlcNAc(b1-4)GlcNAc(b1-4)GlcNAc
In short: as §1

[17] = molecular target: GlcNAc(b1-4)[GlcNAc(b1-6)]GalNAc
In short: as §1

[18] = molecular target: GlcNAc(b1-6)Gal(b1-4)GlcNAc
In short: as §1

[19] = molecular target: GlcNAc(b1-6)GalNAc
In short: as §1

[20] = molecular target: GlcNAc6S(b1-3)Gal(b1-4)GlcNAc
In short: as §1

[21] = molecular target: Kdn(a2-3)Gal(b1-3)GalNAc
In short: as §1

[22] = molecular target: Kdn(a2-3)Gal(b1-3)GlcNAc
In short: as §1

[23] = molecular target: Kdn(a2-3)Gal(b1-4)Glc
In short: as §1

[24] = molecular target: Kdn(a2-3)Gal(b1-4)GlcNAc
In short: as §1

[25] = molecular target: Kdn(a2-3)Gal(b1-4)[Fuc(a1-3)]GlcNAc
In short: as §1

[26] = molecular target: Kdn(a2-6)Gal(b1-4)GlcNAc
In short: as §1

[27] = molecular target: Man(a1-2)Man(a1-2)Man(a1-3)Man
In short: as §1

[28] = molecular target: Man(a1-2)Man(a1-2)Man(a1-6)[Man(a1-3)]Man
In short: as §1

[29] = molecular target: Man(a1-2)Man(a1-3)Man
In short: as §1

[30] = molecular target: Man(a1-2)Man(a1-3)[Man(a1-2)Man(a1-6)]Man
In short: as §1

[31] = molecular target: Man(a1-2)Man(a1-3)[Man(a1-2)Man(a1-6)]Man(a1-6)[Man(a1-2)Man(a1-2)Man(a1-3)]Man
In short: as §1

[32] = molecular target: Man(a1-2)Man(a1-3)[Man(a1-2)Man(a1-6)]Man(a1-6)[Man(a1-2)Man(a1-2)Man(a1-3)]Man(b1-4)GlcNAc(b1-4)GlcNAc
In short: as §1

[33] = molecular target: Man(a1-2)Man(a1-3)[Man(a1-6)]Man(a1-6)[Man(a1-2)Man(a1-3)]Man(b1-4)GlcNAc(b1-4)GlcNAc
In short: as §1

[34] = molecular target: Man(a1-2)Man(a1-6)[Man(a1-3)]Man(a1-6)[Man(a1-2)Man(a1-2)Man(a1-3)]Man
In short: as §1

[35] = molecular target: Man(a1-2)Man(a1-6)[Man(a1-3)]Man(a1-6)[Man(a1-2)Man(a1-2)Man(a1-3)]Man(b1-4)GlcNAc(b1-4)GlcNAc
In short: as §1

[36] = molecular target: Man(a1-3)[Man(a1-6)]Man
In short: as §1

[37] = molecular target: Man(a1-3)[Man(a1-6)]Man(a1-6)[Man(a1-2)Man(a1-3)]Man(b1-4)GlcNAc(b1-4)GlcNAc
In short: as §1

B1: Si Bti9 1b-HA (Solanum lycopersicum) (protein)
chain: MFESRPRSVLSLGVFVILVYLSSVPLPVNSQCNRGCDLALASFYVWRGSNLTLISEMFSTSIADIVSYNNRDNIPNQDSVIAGTRINIPFRCDCLNDGEVLGHAFPYRVKSGDTYDLVARNYSDLTTAQWMMKFNSYPENNIPNTVNLSVVVNCSCGNSDVSKDFGLFVTYPVRAEDNLTSVASAANVSEDIIRRYNPAAVSILDIGQGIIYIPGRDRNGNFPPLPTSTDGLSGGAKAPLFFNPAFLYKVVELKLAGRSRTSGYPYDVPDYAGYPYDVPDYALEVLFQ
glycan array binding signal (z-score) [1]: -0.174 | glycan array binding signal (z-score) [2]: -0.067 | glycan array binding signal (z-score) [3]: -0.032 | glycan array binding signal (z-score) [4]: -0.066 | glycan array binding signal (z-score) [5]: 0.076 | glycan array binding signal (z-score) [6]: -0.43 | glycan array binding signal (z-score) [7]: -0.395 | glycan array binding signal (z-score) [8]: -0.226 | glycan array binding signal (z-score) [9]: -0.286 | glycan array binding signal (z-score) [10]: -0.542 | glycan array binding signal (z-score) [11]: -0.159 | glycan array binding signal (z-score) [12]: 0.958 | glycan array binding signal (z-score) [13]: -0.081 | glycan array binding signal (z-score) [14]: -0.353 | glycan array binding signal (z-score) [15]: 0.211 | glycan array binding signal (z-score) [16]: 0.676 | glycan array binding signal (z-score) [17]: -0.319 | glycan array binding signal (z-score) [18]: -0.32 | glycan array binding signal (z-score) [19]: -0.229 | glycan array binding signal (z-score) [20]: 0.046 | glycan array binding signal (z-score) [21]: 0.029 | glycan array binding signal (z-score) [22]: -0.496 | glycan array binding signal (z-score) [23]: -0.287 | glycan array binding signal (z-score) [24]: -0.356 | glycan array binding signal (z-score) [25]: 0.156 | glycan array binding signal (z-score) [26]: 0.053 | glycan array binding signal (z-score) [27]: -0.4 | glycan array binding signal (z-score) [28]: -0.449 | glycan array binding signal (z-score) [29]: -0.356 | glycan array binding signal (z-score) [30]: -0.589 | glycan array binding signal (z-score) [31]: -0.638 | glycan array binding signal (z-score) [32]: 0.161 | glycan array binding signal (z-score) [33]: -0.363 | glycan array binding signal (z-score) [34]: -0.276 | glycan array binding signal (z-score) [35]: -0.201 | glycan array binding signal (z-score) [36]: -0.292 | glycan array binding signal (z-score) [37]: -0.365
